These results are taken from ChEMBL document CHEMBL1201862, “PubChem BioAssay data set” (2004).

The structures appear in SMILES notation.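 Grown in 96-well plates, cells were treated for 48 hours with each compound at five concentrations. Insufficient inhibition: endpoint recorded as highest concentration tested. At the GI50, growth is halved.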 Calls of active or inactive are those of the source. Cut-off read from the data, not from the text of the source: active = GI50 up to about 1.1 µM and inactive = higher. Some results are limits rather than exact numbers.

The test system of the experiment is NCI-H322M. The experiment can be described thus: NCI anticancer screen, dose series, 48 h.
On to `CN(C)c1ccc(C(c2ccc(N(C)C)cc2)c2ccc([N+](=O)[O-])cc2)cc1`, for which the GI50 was inactive: > 100 µM.

Take `Cl/C(=C\C=N\c1ccc(I)cc1)c1ccc2ccccc2c1`: the GI50 is inactive: 22.6 µM.

As to `O=C1c2[nH]c3ccccc3c2CCN2CCCCC12` (configuration not stated), the GI50 is inactive: 48.5 µM.

Regarding `O=C(/C=C1/Nc2ccc([N+](=O)[O-])cc2NC1O)c1cccc([N+](=O)[O-])c1` (configuration not stated), the GI50 was inactive: 87.1 µM. Take `CC(=O)OCC1OC(OCCCCCCO)C(OC(C)=O)C(OC(C)=O)C1OC(C)=O` (configuration not stated): the GI50 is inactive: > 100 µM. The value for `OC1(c2ccccc2)C2CCN(CC2)C1CN1CCOCC1` (configuration not stated) was inactive: > 100 µM; that for `CC(=O)NC1=C(Sc2ccc(Cl)cc2)C(=O)c2ccccc2C1=O` was inactive: 14.8 µM; that for `COc1ccc2c3c(c(C(=O)O)oc13)CCC2` was inactive: > 100 µM.

On to `COc1ccc2c3c([nH]c2c1[N+](=O)[O-])C(C)N(Cc1ccc([N+](=O)[O-])cc1)CC3` (configuration not stated), for which the GI50 is inactive: 12.3 µM.

In the case of `c1ccc2c[n+](Cc3ccnc4ccccc34)ccc2c1`, the GI50 is inactive: > 100 µM. The value for `Cc1ccc(NC(=O)/C(=N\NC(N)=O)c2c(O)c3ccccc3[nH]c2=O)cc1` was inactive: > 100 µM; that for `CC(Br)C(=O)c1ccc2cc(Br)c3ccccc3c2c1` (configuration not stated) was inactive: 20.2 µM.

Regarding `CCN(CC)Cc1cc(Nc2ccnc3ccc4c(nnn4C)c23)ccc1O`, the GI50 was inactive: 14 µM. The value for `Cc1oc2nc(N(C)C)nc(Cl)c2c1C` was inactive: > 100 µM. With `Oc1cccc(C2SCc3nc4ccccc4n32)c1` (configuration not stated) the figure was inactive: > 100 µM; with `O=C(CCN1CCN(c2ccccc2)CC1)N1CCc2c([nH]c3ccccc23)C1c1cccnc1` (configuration not stated), inactive: > 10 µM.

For the compound `CC(C)=CCC/C(C)=C/Cc1c2c(c3oc(-c4ccc(O)c(O)c4)c(O)c(=O)c3c1O)C=CC(C)(C)O2`, the GI50 was inactive: 1.52 µM.

On to `Cc1cc(C)nc(NC(=S)Nc2cccc(Cl)c2)c1`, for which the GI50 is inactive: > 100 µM. `c1ccc(/N=C2/SC(c3ccccc3)(c3ccccc3)c3ccccc32)cc1`: the GI50 is inactive: > 100 µM. The value for `Cc1ccccc1Nc1cn(CCOc2ccccc2)c(=O)n(CCOc2ccccc2)c1=O` was inactive: > 100 µM. With `C1CC2=C(C1)C1=S(S2)SC2=C1CCC2` the figure was inactive: > 100 µM; with `O=S(=O)(Oc1ccc2oc3ccccc3c2c1-c1c(OS(=O)(=O)C(F)(F)F)ccc2oc3ccccc3c12)C(F)(F)F`, inactive: > 100 µM.

Regarding `O=C1CN(C(=O)c2ccccc2)Cc2[nH]c3ccccc3c21`, the GI50 is inactive: > 100 µM. Regarding `COC(=O)[C@@]12CC3CN(Cc4c1[nH]c1ccccc41)C2CC3=O`, the GI50 is inactive: > 100 µM. The value for `CN1C(=O)c2ccccc2OC12C=Cc1ccc(O)cc1O2` (configuration not stated) was inactive: 43.1 µM; that for `CCOC(=O)c1cc(C2CCN(CC(C)CC)C2=S)c(-c2cc(C)no2)[nH]1` (configuration not stated) was inactive: > 100 µM.

`CC(C)(O)CCC(O)C(C)(O)C1CCC2(O)C3=CC(=O)C4(O)CC(O)C(O)CC4(C)C3CCC12C.CC(C)(O)CCC(O)C(C)(O)C1CCC2(O)C3=CC(=O)C4CC(O)C(O)CC4(C)C3CCC12C` (configuration not stated): the GI50 is inactive: > 100 µM.

In the case of `CC(=O)c1ccc(NC(=O)COC(=O)c2cccc3c(=O)c4ccccc4[nH]c23)cc1`, the GI50 is inactive: 81.3 µM. With `Cc1cn(C2CC(O)C(COP(=O)(O)OC3CC(n4c[n+]([BH2-]C#N)c5c(=O)[nH]c(N)nc54)OC3CO)O2)c(=O)[nH]c1=O` (configuration not stated) the figure was inactive: > 100 µM; with `COC1=CC(=O)C2[C@H]3Cc4ccccc4[C@H]3C2(C)C1=O` (some centres not stated), inactive: > 100 µM; with `COC(=O)C1=Cc2cc(OC)c(OC)cc2[C@H](c2ccc(OC)c(OC)c2)C1C(=O)OC` (some centres not stated), inactive: > 100 µM.

Consider `CSc1ccc2c(c1)c(CCN)c(C)n2Cc1ccccc1Cl`, for which the GI50 is inactive: 1.6 µM.
